Reference: PubChem BioAssay AID1347055 (National Center for Advancing Translational Sciences (NCATS), 2019)
Among all 54,000 compounds or so, about 120 (0.22%) were called active. The shares of active, inactive and inconclusive entries below differ from those in the screen. The call rests on the fitted dose curve; in most records, active means well fitted inhibition curve with a large enough effect; inconclusive means small, poorly fitted or top-dose-only effect, or effect the other way; inactive means flat fitted curve, though single readings scatter. No potency is given beside an inconclusive call; the fits are too rough.

Target: Fumarate hydratase, mitochondrial (Homo sapiens) (UniProt P07954)
Assay: Identification of activators of human fumarate hydratase by quantitative high-throughput screening; further: the screen sought activators but most active calls are inhibition curves; nearly all actives have a fitted effect of over 45% in size
Details: FH coupled MDH/diaphorase resazurin fluorescence, 15 min; activity change, negative = inhibition: at 79.9 µM (top of the series)
On the % scale 0 is the no-effect control and ±100 the full control effect; potency means the concentration at half of the fitted maximal effect; tags describe the fitted curve by direction and shape.

Sequence of UniProt P07954 (P07954 whole entry, looked up): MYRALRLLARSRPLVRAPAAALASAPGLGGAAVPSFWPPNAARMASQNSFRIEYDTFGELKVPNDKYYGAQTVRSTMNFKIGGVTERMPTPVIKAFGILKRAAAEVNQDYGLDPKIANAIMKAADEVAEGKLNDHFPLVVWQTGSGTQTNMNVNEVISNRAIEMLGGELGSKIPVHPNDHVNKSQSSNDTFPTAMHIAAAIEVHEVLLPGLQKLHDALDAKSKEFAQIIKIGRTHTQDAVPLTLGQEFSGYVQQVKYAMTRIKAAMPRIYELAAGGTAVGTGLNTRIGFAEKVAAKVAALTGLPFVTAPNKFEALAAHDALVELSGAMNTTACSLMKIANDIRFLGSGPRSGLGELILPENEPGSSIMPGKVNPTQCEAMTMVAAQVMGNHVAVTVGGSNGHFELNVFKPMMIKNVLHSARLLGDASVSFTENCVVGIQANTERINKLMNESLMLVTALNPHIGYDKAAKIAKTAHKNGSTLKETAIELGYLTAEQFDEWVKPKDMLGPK

Row | Structure (SMILES) | Potency | activity change, negative = inhibition
1 | CCCN1C(=O)c2[nH]nc(-c3ccc(F)cc3)c2C1c1ccc(O)c(OCC)c1 (stereo unspecified) | inconclusive [inhibitor, partial curve, poor fit] | 
2 | CCOc1ncc(S(=O)(=O)N2CCN(CC)CC2)cc1-c1nc2c(CC)n(CCOC)nc2c(=O)[nH]1 | inactive | 
3 | Cc1nn(C)c2c1c(-c1ccccc1)cc(=O)n2Cc1ccc(Br)cc1F | inconclusive [inhibitor, single point] | 
4 | CC(=O)c1cccc(NC(=O)Cn2c(=O)oc3cc(S(=O)(=O)NCc4ccccc4)ccc32)c1 | inactive | 
5 | COc1ccc(CCNC(=O)c2c[nH]n3c(=O)c(Cc4ccccc4Cl)c(C)nc23)cc1OC | active: 17.8 µM | 
6 | CCn1c2c(c(=O)n3ncc(C(=O)Nc4ccc(OC(F)(F)F)cc4)c13)CN(Cc1ccc(OC)cc1)CC2 | inconclusive [inhibitor, single point] | 
7 | CC(=O)NCc1cccc(OC[C@@H](O)CNCCc2ccc(NS(=O)(=O)c3ccccc3)cc2)c1 | inactive | 
8 | CCc1ccc(Nc2ncnc3sc4c(c23)CCCC4)cc1 | inactive | 
9 | CCCN(C(=O)c1cc2c(=O)n(CC)c3ccccc3c2s1)c1ccccc1F | inconclusive [inhibitor, partial curve, poor fit] | 
10 | COc1ccc(/C=C/c2nc(C#N)c(N3CCCCCC3)o2)cc1OC | inconclusive [inhibitor, single point] | 
11 | CCN(C(=O)c1cc2c(=O)n(CC)c3ccccc3c2s1)c1cccc(C(F)(F)F)c1 | inconclusive [inhibitor, partial curve, poor fit] | 
12 | CCOc1ccc(-n2c(=O)c3c(C)c(C)sc3n(CC(=O)Nc3ccc(CC)cc3)c2=O)cc1 | inconclusive [activator, single point] | 
13 | COc1ccc(Cl)cc1S(=O)(=O)N1CCN(CC(=O)Nc2ccccc2C(F)(F)F)CC1 | inconclusive [inhibitor, single point] | 
14 | Cc1ccn2c(Nc3ccc4c(c3)OCO4)c(-c3ccc(Cl)cc3)nc2c1 | inconclusive [inhibitor, single point] | 
15 | Cc1sc2c(c1C)C(c1ccc(Cl)cc1)=N[C@@H](CC(=O)Nc1ccc(OCCOCCOCCOCCNc3cccc4c3C(=O)N(C3CCC(=O)NC3=O)C4=O)cc1)c1nnc(C)n1-2 (stereo partly specified) | inactive | 
16 | Cc1cc(C)cc(NC(=O)C2CCN(C(=O)c3cnn(-c4ccccc4)c3-n3cccc3)CC2)c1 | inconclusive [inhibitor, partial curve] | 
17 | CC1=CC(=O)[C@@]2(C(C)C)C[C@@H]12 | inconclusive [inhibitor, single point] | 
18 | O=C(NCc1cccs1)c1ccc(CSc2nc3cccnc3n2Cc2ccc(F)cc2)cc1 | inactive | 
19 | [N-]=[N+]=Nc1ccc(C(=O)CSC[C@H](NC(=O)CC[C@H](N)C(=O)O)C(=O)NCC(=O)O)cc1 | active: 31.6 µM | 
20 | O=C(c1ccc2c(c1)CCCC2)N1CCN(c2nc3ccc(F)cc3s2)CC1 |  | inconclusive: -38.3% [inhibitor]
21 | CCOc1ccccc1NC(=O)C(=O)c1cc(C)n(-c2ccc(F)cc2)c1C | inconclusive [inhibitor, single point] | 

Row | Structure (SMILES) | Potency | activity change, negative = inhibition
22 | O=C(CSc1cn(CCNC(=O)c2ccccc2F)c2ccccc12)Nc1ccc(F)cc1 | inactive | 
23 | COc1cccc(-n2c(-c3ccco3)nc3c(cnn3-c3ccc(Cl)cc3)c2=O)c1 | inactive | 
24 | CCn1c(C)c(C)c2cc(C(=O)N3CCN(c4cccc(C)c4C)CC3)ccc21 | inconclusive [inhibitor, partial curve] | 
25 | CC(C)=CCC/C(C)=C/CC/C(C)=C/COC1OC(COC2OCC(OC3OCC(O)C(O)C3O)C(O)C2O)C(O)C(OC2OC(C)C(OC3OC(C)C(OC4OCC(OC5OC(C)C(O)C(O)C5O)C(O)C4O)C(O)C3O)C(O)C2O)C1O (stereo unspecified) |  | inactive: 11.4% [at 13.5 µM]
26 | Cc1ccc(-c2nc(-c3cc4cccc(OCc5cccc(F)c5)c4oc3=O)no2)cc1 | inactive | 
27 | Cc1ccc(CSc2nc3ccsc3c(=O)n2CCC(C)C)cc1 | inconclusive [inhibitor, partial curve, poor fit] | 
28 | COc1ccc(C)c2sc(NC(=O)c3ccncc3)nc12 | inactive | 
29 | CC(C)c1ccc2occ(CC(=O)Nc3cccc(C(F)(F)F)c3)c2c1 | inconclusive [inhibitor, partial curve, poor fit] | 
30 | Cc1cc(C)c(NS(=O)(=O)c2ccc3c(c2)CC(C)N3C(=O)C2CCC2)c(C)c1 (stereo unspecified) | inconclusive [inhibitor, partial curve, poor fit] | 
31 | N#Cc1nc(COc2ccccc2Cl)oc1NCCc1ccccc1 | inconclusive [inhibitor, single point] | 
32 | CCc1nnc(SC(CC)C(=O)Nc2ccc(OC)c(Cl)c2)c2cc3occc3n12 (stereo unspecified) | inconclusive [inhibitor, partial curve] | 
33 | Cc1ccc(Nc2ccc3cc(S(=O)(=O)N4CCCCC4)ccc3n2)cc1F | inconclusive [inhibitor, single point] | 
34 | COc1ccc(-c2cc3nc(C)c(CCC(=O)NCc4ccccc4Cl)c(C)n3n2)c(OC)c1 | inconclusive [inhibitor, single point] | 
35 | COc1cccc(-c2noc(COc3ccc(C(C)(C)C)cc3)n2)c1 | inactive | 
36 | Cc1ccccc1NS(=O)(=O)c1ccc2[nH]cc(C(=O)NC3CCCCC3)c(=O)c2c1 | inconclusive [inhibitor, single point] | 
37 | CCn1c(=O)c2cc(C(=O)NC3CCC(C)CC3)sc2c2ccccc21 (stereo unspecified) | inconclusive [inhibitor, single point] | 
38 | COc1ccc(-n2ncc(C(=O)Nc3ccc4c(c3)OCO4)c2C2CCN(C(=O)OC(C)(C)C)CC2)cc1 | inconclusive [inhibitor, partial curve] | 
39 | Cc1ccc(CNC(=O)CN2C(=O)CSc3c2c(C)nn3-c2ccccc2)cc1 | inconclusive [activator, partial curve, poor fit] | 
40 | CC(=O)OC1C(O)CC(O[C@@H]2O[C@H](CO)[C@@H](O)[C@H](O)[C@H]2O)C2CCC3C(=O)OC(c4ccoc4)CC3(C)C21 (stereo partly specified) | inactive | 
41 | O=C(C[C@@H]1C(C(=O)O)=CO[C@@H](O[C@@H]2O[C@H](CO)[C@@H](O)[C@H](O)[C@H]2O)/C1=C\CO)OCCc1ccc(O)cc1 | inactive | 
42 | CCOC(=O)C1CCCN(c2c(C(=O)c3ccc(OCC)cc3)cnc3ccccc23)C1 (stereo unspecified) | inconclusive [inhibitor, single point] | 

Row | Structure (SMILES) | Potency | activity change, negative = inhibition
43 | CC(=O)n1nc(-c2cccnc2)nc1NCc1ccc(F)cc1 | inactive | 
44 | COc1ccc(NC(=O)c2c(NCc3cccs3)sc3c2CCCC3)c(OC)c1 | inconclusive [inhibitor, single point] | 
45 | COc1ccc2oc(=O)c(C(=O)Nc3cccc(C(=O)O)c3)cc2c1 | inactive | 
46 | COc1ccccc1-c1cc2nc(C)c(CCC(=O)NCCc3ccc(SC)cc3)c(C)n2n1 | inactive | 
47 | CC(C)[N+](C)(C)CC(O)COc1cccc2ccccc12 (stereo unspecified) | inactive | 
48 | Cc1ccc2occ(CC(=O)Nc3ccc(S(=O)(=O)N4CCCC(C)C4)cc3)c2c1 (stereo unspecified) | inconclusive [inhibitor, partial curve, poor fit] | 
49 | O=C(Nc1ccc(Cl)c(C(F)(F)F)c1)c1ccc2c(c1)CCN2S(=O)(=O)c1ccccc1 | inconclusive [inhibitor, partial curve, poor fit] | 
50 | CSc1ccc(-c2nc3c(C)cccn3c2Nc2ccc3c(c2)OCCO3)cc1 | inconclusive [inhibitor, partial curve, poor fit] | 
51 | CC(C)CN(CCNC(=O)c1cn(C)c2ccc(S(=O)(=O)N3CCOCC3)cc2c1=O)CC(C)C | inconclusive [inhibitor, partial curve, poor fit] | 
52 | CCOC(=O)c1nnn(CC(=O)Nc2cc(C)cc(C)c2)c1C(=O)OCC | inactive | 
53 | CCOc1ccc(NC(=O)c2sc(-n3nc(C)c(CCC(C)C)c3C)nc2C)cc1 | inconclusive [inhibitor, partial curve] | 
54 | COc1ccc(-c2nc(CSCC(=O)N3CCN(c4ccccc4F)CC3)c(C)o2)cc1 | inconclusive [inhibitor, partial curve, poor fit] | 
55 | O=C(CCS(=O)(=O)c1ccc(Br)s1)Nc1cc(C(F)(F)F)cc(C(F)(F)F)c1 | inconclusive [inhibitor, partial curve] | 
56 | CCOc1ccc(CNC(=O)CSc2c3c(nc4cc(Cl)ccc24)CCCC3)cc1 | inconclusive [inhibitor, single point] | 
57 | Cc1ccc(S(=O)(=O)Nc2cc(Cl)c3oc4c(c3c2)CCCC4)cc1 | inconclusive [inhibitor, single point] | 
58 | Cc1ccc(CN2C(=O)c3ccccc3Sc3ccc(C(=O)N4CCOCC4)cc32)cc1 | inconclusive [inhibitor, partial curve, poor fit] | 
59 | CCOC(=O)c1c(C)oc2nc(C)nc(NCCc3ccc(C)cc3)c12 | inconclusive [inhibitor, partial curve, poor fit] | 
60 | Cc1ccc2nc(CN3CCN(S(=O)(=O)c4ccc(C(C)C)cc4)CC3)oc2c1 | inconclusive [inhibitor, partial curve] | 
61 | CC(C)(C)c1ccc(C(=O)N2CCCC(c3nc4c(nnn4Cc4cccc(F)c4)c(=O)[nH]3)C2)cc1 (stereo unspecified) | inconclusive [inhibitor, single point] | 
